This test has as its target p/CIP-EGFP fusion (nuclear receptor coactivator 3, mouse) (UniProt Q05BA5). Nature of the test: p/CIP-EGFP fusion destabilizers, primary screen, fluorescence, F442A cells (AID 1984). Conditions: 16 h.
Where [1] appears, read: measured here: confirmation repeats at 10 uM, at 10 µM.
Setting [2] is: measured here: confirmation repeats at 20 uM, at 20 µM.

The values below come from PubChem BioAssay AID1984 (Sanford-Burnham Center for Chemical Genomics, 2009).

The other results are listed elsewhere or left out. Further columns of the screen follow, without active or inactive calls.

As to `Cc1ccc(NC2=C/C(=N\S(=O)(=O)c3cccs3)c3ccccc3C2=O)c(C)c1`, the decrease of EGFP signal was 25.3% under setting [1] and 35.7% under setting [2].

As to `O=C1C(Cl)=C(NCCN2CCCCC2)C(=O)c2ccccc21`, the decrease of EGFP signal under setting [1] was 13.7% and the decrease of EGFP signal under setting [2] worked out at 70.3%.

With `O=C1C(Nc2ccccc2)=C/C(=N/S(=O)(=O)c2cccs2)c2ccccc21`, the decrease of EGFP signal worked out at 34.6% under setting [1] and 42.2% under setting [2].

Take `CC(C)(C)c1cc[n+](C2=C([O-])c3ccccc3C(=O)/C2=N\S(=O)(=O)c2cccs2)cc1`: the decrease of EGFP signal is, setting by setting: under setting [1], 13.1%; under setting [2], 47.3%.

In the case of `CCCc1nc2c(=O)n(C)c(=O)nc-2n(C)n1`, the decrease of EGFP signal worked out at 40.8% under setting [1] and 39.5% under setting [2].

On to `COc1ccc(CS(=O)/C(Cl)=C(/Cl)C(=O)Nc2ccc(OC)nc2)cc1` (stereo not drawn), for which the decrease of EGFP signal by setting is: under setting [1], 8.9%; under setting [2], 38.4%.

Take `CCOC(=O)c1c(C)[nH]c2c1-c1ccccc1C(=O)C2=O`: the decrease of EGFP signal reads like this: under setting [1], 69.2%; under setting [2], 68.4%.

As to `O=C1C(Nc2ccc(O)cc2)=C/C(=N/S(=O)(=O)c2cccs2)c2ccccc21`, the decrease of EGFP signal is, setting by setting: under setting [1], 42.7%; under setting [2], 38.5%.

`Cc1ccccc1NC1=C/C(=N\S(=O)(=O)c2cccs2)c2ccccc2C1=O`: the decrease of EGFP signal was 30.7% under setting [1] and 34.6% under setting [2].

Regarding `COc1ccc(NC(=O)/C(Cl)=C(/Cl)S(=O)Cc2ccc(Cl)cc2)cn1` (stereo not drawn), the decrease of EGFP signal by setting is: under setting [1], -8%; under setting [2], 49%.

In the case of `CCOC(=O)N=Nc1c2ccccc2c2nc3no[nH]c3nc12`, the decrease of EGFP signal is 32.5% under setting [1] and 35.6% under setting [2].

Take `CC1CCN(S(=O)(=O)c2ccc3c(c2)C(=NO)c2cc(S(=O)(=O)N4CCC(C)CC4)ccc2-3)CC1`: the decrease of EGFP signal by setting is: under setting [1], 72.4%; under setting [2], 71.9%.

Turning to `Cc1oc2c(c1C(=O)NCc1cccnc1)C(=O)c1ccccc1C2=O`, the decrease of EGFP signal runs as follows: under setting [1], 43.5%; under setting [2], 37.2%.

On to `Nc1ccc2c(c1)C(=O)C(=O)c1ccccc1-2`, for which the decrease of EGFP signal under setting [1] amounted to 59% and the decrease of EGFP signal under setting [2] is 40.4%.
